Reference: PubChem BioAssay AID504832 (National Center for Advancing Translational Sciences (NCATS), 2011)
“And” between values parts separate entries of the source, which are not always exact repeats. Equal entries are not always repeated. The whole screen tested about 310,000 compounds, of which about 18,000 (5.8%) were called active. This list was built around the results that the source calls inconclusive (neither active nor inactive); the mix of calls is not that of the screen. Calls follow the shape of the dose curve; as a rule, active = well fitted inhibition curve with a large enough effect; inconclusive = small, poorly fitted or top-dose-only effect, or another doubt; inactive = no such curve, though single readings can be large or run the other way. A potency beside an inconclusive call is a rough fit, not a confirmed value.
% is scaled to controls: 0 for no effect and ±100 for the full control effect; potency is read from the fitted curve at half-maximal effect; tags tell the direction and shape of the fitted curve.

Test: Primary qHTS for delayed death inhibitors of the malarial parasite plastid, 48 hour incubation
Details: P. falciparum luciferase growth in erythrocytes; series mostly up to 28.7 µM; activity change, negative = inhibition: at the top concentration
In short: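 First compound was added to culture medium, then infected red cells at 0.1% parasitemia and 2% hematocrit (final). After incubation at 37 C under 5% CO2, luciferase detection reagent was dispensed and light output recorded.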
In the case of `C/C(N)=C(/C#N)C(=O)CSc1nc(C2CCCCC2)n(-c2ccccc2)n1`, the Potency is reported as inconclusive: 2.62 µM [inhibitor, partial curve, poor fit]. For `COc1cccc(CN2CCN(Cc3cc(OC)c(OC)cc3OC)CC2)c1`, the “activity change, negative = inhibition” value was inactive: -21.9%. With `CCN(CC)S(=O)(=O)c1ccc(NC(=O)COC(=O)c2ccc(NC(=O)CC#N)cc2)cc1` the “activity change, negative = inhibition” value was inactive: 0%. In the case of `O=C(CSc1nnc(-c2cccnc2)n1Cc1ccco1)c1ccc(Cl)c(Cl)c1`, the Potency is reported as inconclusive: 16.5 µM [inhibitor, partial curve, poor fit]. With `CC(CC(=O)NC(C)c1ccc2c(c1)OCCO2)c1ccccc1` (stereo unspecified) the “activity change, negative = inhibition” value was inactive: 3.84%. With `CN1CCC[C@@H]1Cc1c[nH]c2ccc(CCS(=O)(=O)c3ccccc3)cc12` the Potency was inconclusive: 13.5 µM [inhibitor, single point]. In the case of `COCCn1c(C2CCCCC2)nc2sc3ccccc3c(=O)c2c1=O`, the Potency is reported as active: 1.47 µM. With `Cc1cccc(C)c1NC(=O)C[n+]1cc(-c2ccccc2)n2c1CCC2` the Potency was inconclusive: 18.5 µM [inhibitor, single point]. For `CCn1cc(C(=O)NCCCN2CCC(C)CC2)c(=O)c2cc(S(=O)(=O)N(C)C3CCCCC3)ccc21`, the Potency was inconclusive: 10.4 µM [inhibitor, partial curve]. With `CCOc1ccc(N2CC(C(=O)Nc3ccc(S(=O)(=O)N4CCCC4)cc3)CC2=O)cc1` (stereo unspecified) the Potency was inconclusive: 11.7 µM [inhibitor, single point]. With `Cc1ccc(C(=O)OCN2C(=O)c3ccccc3C2=O)cc1S(=O)(=O)N1CCOCC1` the “activity change, negative = inhibition” value was inactive: 5.96%. In the case of `N#C/C(=C\c1cccs1)C(=O)NCc1ccco1`, the “activity change, negative = inhibition” value is reported as inactive: 26.4%. With `CCSc1sccc1C1C(C#N)=C(N)N(c2cccnc2)C2=C1C(=O)CCC2` (stereo unspecified) the Potency was active: 11.7 µM. For `CCN(CC)CCN1CCn2c3c(c4cc(C)ccc42)CCCC31` (stereo unspecified), the Potency was active: 3.7 µM. For `COc1ccc(Cn2nnnc2C(c2cccnc2)N2CCN(c3ccc(O)cc3)CC2)cc1` (stereo unspecified), the Potency was inconclusive: 11.7 µM [inhibitor, single point]. With `CCC1CCCCN1CCNC(=O)C1CCCN(S(=O)(=O)c2cccc3nsnc23)C1` (stereo unspecified) the Potency was inconclusive: 1.04 µM [inhibitor, full curve, poor fit]. In the case of `O=C(Nc1nc2ccccc2[nH]1)c1ccccc1[N+](=O)[O-]`, the “activity change, negative = inhibition” value is reported as inactive: 145%. For `C=CCn1c(CCCNC(=O)CCC)nc2ccccc21`, the “activity change, negative = inhibition” value was inactive: -4.98%. For `Cc1ccc(NC(=O)c2ccc(Cl)c(S(=O)(=O)N3CCCC3)c2)nc1`, the Potency was inconclusive: 13.1 µM [inhibitor, single point]. In the case of `COc1cc(COCC(O)CN2CCN(Cc3ccccc3)CC2)cc(OC)c1OC` (stereo unspecified), the “activity change, negative = inhibition” value is reported as inactive: -16.2%. In the case of `COC(=O)c1sccc1NC(=O)CC1C(=O)NCCN1C(=O)Nc1ccc(OCc2ccccc2)cc1` (stereo unspecified), the Potency is reported as inconclusive: 9.28 µM [inhibitor, single point]. For `Cc1cc(NC(=O)COn2nnc3ccc(S(C)(=O)=O)cc32)ccc1Br`, the “activity change, negative = inhibition” value was inactive: -9.88%. In the case of `COCCCNC(=O)C1CCN(S(=O)(=O)c2ccc3nc4c(c(C(=O)O)c3c2)CCCCC4)CC1`, the “activity change, negative = inhibition” value is reported as inactive: 19.2%. In the case of `c1ccc(C2(CN3CCNC[C@H]3Cc3cccc4ccccc34)CC2)cc1`, the Potency is reported as inconclusive: 10.4 µM [inhibitor, single point]. For `O=C(NCc1ccncc1)C1CCC(=O)N(CCc2ccc(Cl)cc2)C1` (stereo unspecified), the Potency was inconclusive: 18.5 µM [inhibitor, partial curve, poor fit]. With `CC1CCCC(NC(=O)Cn2cc(C(F)(F)F)cc(Cl)c2=O)C1C` (stereo unspecified) the Potency was inconclusive: 18.5 µM [inhibitor, single point]. In the case of `c1ccc2c(N3CCNCC3)nsc2c1`, the Potency is reported as active: 13.1 µM. With `N#C/C(=C/c1ccc(N2CCCCC2)o1)C(=O)Nc1ccc(Cl)cc1` the “activity change, negative = inhibition” value was inactive: 86.7%. For `O=C(Cn1nnc2ccccc21)NNC(=S)NC1CCCCC1`, the “activity change, negative = inhibition” value was inactive: 20.7%. For `O=C(COC(=O)c1ccncc1)c1ccc(Cl)c(Cl)c1`, the “activity change, negative = inhibition” value was inactive: 11.8%. With `COc1ccc(CCc2nc(C)ccc2O)cc1` the Potency was inconclusive: 11.7 µM [inhibitor, partial curve, poor fit] and inconclusive: 18.5 µM [inhibitor, single point]. For `CCOc1ccccc1OCCCC(=O)N1CCN(S(=O)(=O)c2cccc(F)c2)CC1`, the Potency was inconclusive: 9.28 µM [inhibitor, partial curve]. For `C=CCNC(=O)N1CCC(n2nccc2NC(=O)CCCc2ccccc2)CC1`, the “activity change, negative = inhibition” value was inactive: 6.28%. In the case of `Cc1ccc(CS(=O)(=O)c2ccc(C(=O)N3CCCCC3)cc2[N+](=O)[O-])cc1`, the Potency is reported as inconclusive: 20.8 µM [inhibitor, partial curve, poor fit]. For `CC(C)OC(=O)CSc1nnc(-c2ccc(C(C)(C)C)cc2)n1N`, the Potency was inconclusive: 18.5 µM [inhibitor, single point]. With `COc1ccc(C(=O)N2CCC3(CC2)NCCc2[nH]cnc23)cc1OC` the “activity change, negative = inhibition” value was inactive: 41.5%. With `O=C(CNc1ccc2c(c1)OCO2)N/N=C\c1cn(Cc2ccc(F)cc2)c2ccccc12` the Potency was inconclusive: 10.4 µM [inhibitor, single point]. For `COc1cc(OC)c(CN2CCc3c([nH]c4ccccc34)C2)cc1Br`, the “activity change, negative = inhibition” value was inactive: -21.1%. In the case of `CCc1ccc(N=CC23c4ccccc4C(c4ccccc42)C2C(=O)N(c4ccc(OC)cc4)C(=O)C23)cc1` (stereo unspecified), the Potency is reported as inconclusive: 14.7 µM [inhibitor, partial curve]. With `CCNc1nc(C)nc2c1oc1ccccc12` the “activity change, negative = inhibition” value was inactive: 24.4%. For `O=C(CSc1ccc(F)cc1)Nc1nnc(-c2ccco2)o1`, the “activity change, negative = inhibition” value was inactive: 19.6%. For `CCOC(=O)c1ccc(Nc2nc(N)c3cc(OC)c(OC)cc3n2)cc1`, the Potency was active: 1.04 µM. In the case of `O=C(Cn1cccc1)N1CCN(C(c2ccccc2)c2ccccc2)CC1`, the Potency is reported as inconclusive: 11.7 µM [inhibitor, partial curve]. In the case of `Cc1ccc(C)n1CCN1CCN(C(=O)c2ccc(Cl)cc2)CC1`, the Potency is reported as inconclusive: 11.7 µM [inhibitor, partial curve, poor fit]. With `C[C@]12CC[C@H]3[C@@H](CC[C@@]45O[C@@H]4C(=O)C(C#N)C[C@]35C)[C@@H]1CC[C@@H]2O` (stereo partly specified) the Potency was inconclusive: 2.13 µM [inhibitor, partial curve, poor fit]. In the case of `Oc1ccc(O)c2c1C1c3ccccc3C2c2ccccc21`, the Potency is reported as inconclusive: 4.15 µM [inhibitor, partial curve]. With `O=C(O)/C=C\c1cc2c(cc1[N+](=O)[O-])OCO2` the “activity change, negative = inhibition” value was inactive: 0%. For `CCOCCCNC(=O)c1ccc2c(c1)ncn2-c1ccc(C)cc1C`, the Potency was inconclusive: 9.28 µM [inhibitor, single point]. With `Cc1ccsc1/C=N/NC(=O)c1nnn(-c2nonc2N)c1-c1ccc2c(c1)OCO2` the Potency was active: 3.29 µM. In the case of `CCOC(=O)C1CCN(C(=O)C(C)c2ccc([N+](=O)[O-])cc2)CC1` (stereo unspecified), the “activity change, negative = inhibition” value is reported as inactive: 0.389%. In the case of `Cc1ccc(Nc2cc(=O)[nH]c(=O)[nH]2)cc1C`, the Potency is reported as inconclusive: 9.28 µM [inhibitor, partial curve]. With `O=S(=O)(c1ccccc1)N1N=C(c2cccs2)CC1c1ccc(Br)cc1` (stereo unspecified) the Potency was inconclusive: 5.86 µM [inhibitor, partial curve, poor fit]. For `CCOc1ccc(S(=O)(=O)N2CCC(C(=O)N3CCN(Cc4ccccc4)CC3)CC2)cc1`, the Potency was active: 9.28 µM. For `Oc1ccc(-c2nccc(-c3cccs3)n2)cc1`, the “activity change, negative = inhibition” value was inactive: 91.7%. For `Cc1ccc[n+](C(C)C(=O)c2ccc(-c3ccccc3)cc2)c1` (stereo unspecified), the Potency was inconclusive: 0.928 µM [inhibitor, full curve, poor fit]. In the case of `CCN1C(=O)C(CC(=O)Nc2ccc(OC)cc2)N(CCc2ccccc2)C1=S` (stereo unspecified), the Potency is reported as inconclusive: 10.4 µM [inhibitor, partial curve, poor fit]. For `FC(F)Oc1ccc(/C=N/N2CCCCC2)c(OC(F)F)c1`, the “activity change, negative = inhibition” value was inactive: 18.1%. For `COC(OC)c1ccc(C#N)c(SCc2ccccc2)n1`, the Potency was inconclusive: 6.57 µM [inhibitor, partial curve, poor fit]. In the case of `Cc1cccc(Nc2c3c(nc4ccccc24)CCC3)c1`, the Potency is reported as active: 11.7 µM. With `Cc1cc(C)n(CCNC(=O)c2cc(COc3ccc4ncccc4c3)on2)n1` the Potency was inconclusive: 11.7 µM [inhibitor, partial curve, poor fit]. With `COc1ccc(NC(=O)C2CC(=O)N(Cc3ccc(C)cc3)C2)cc1S(=O)(=O)N1CCCCC1` (stereo unspecified) the Potency was inconclusive: 13.1 µM [inhibitor, single point]. For `CC(=O)/C=C(\C)Nc1ccccc1O`, the Potency was inconclusive: 2.62 µM [inhibitor, partial curve, poor fit]. For `CC(C)(C)c1ccc(OCC(=O)Nc2ccc(C(=O)Nc3ccccc3C(=O)O)cc2)cc1`, the “activity change, negative = inhibition” value was inactive: 8.48%. For `CNc1snc(C)c1C(=O)OC(C)C(=O)NCc1ccccc1` (stereo unspecified), the “activity change, negative = inhibition” value was inactive: -0.754%. In the case of `CCOC(=O)N1CCN(C(=O)c2ccc3nc(N4CCC(C)CC4)sc3c2)CC1`, the Potency is reported as inconclusive: 9.28 µM [inhibitor, partial curve, poor fit]. In the case of `COc1cc(C(CCN2CCCCC2)c2c(OC)cc(OC)c3c(C)cc(=O)oc23)cc(OC)c1OC` (stereo unspecified), the Potency is reported as active: 8.28 µM. With `NC(N)=NC1=NC(=O)/C(=C/c2ccccc2-n2cccn2)S1` the “activity change, negative = inhibition” value was inactive: 11.9%. For `CC1(c2ccccc2)NC(=O)N(CC(=O)N(CC(=O)Nc2ccccc2C(F)(F)F)Cc2ccco2)C1=O` (stereo unspecified), the “activity change, negative = inhibition” value was inactive: -29.8%. In the case of `O=C(CCC(=O)Nc1ccccc1Cl)NNC(=O)Nc1cccc([N+](=O)[O-])c1`, the Potency is reported as inconclusive: 10.4 µM [inhibitor, partial curve, poor fit]. In the case of `Nc1ccccc1C#CC(=O)c1ccccc1`, the Potency is reported as inconclusive: 8.28 µM [inhibitor, partial curve]. For `Cc1ccc(S(=O)(=O)Nc2nc3ccc(S(=O)(=O)N4CCCC4)cc3s2)cc1`, the Potency was inconclusive: 18.5 µM [inhibitor, single point].
